{"source": "PubChem BioAssay AID1963576", "about": "(National Center for Advancing Translational Sciences (NCATS), 2024)", "note": "Hit rate of the full screen: of about 46,000 compounds, about 60 (0.1%) were called active. The shares of active, inactive and inconclusive entries below differ from those in the screen. Calls come from the whole dose curve; as a rule, active = well fitted inhibition curve with a large enough effect; inconclusive = small, poorly fitted or top-dose-only effect; inactive = no such curve, though single readings can be large or run the other way. Potencies of inconclusive entries are left out as doubtful fits. Potency is the fitted concentration of half-maximal effect; tags give direction and shape of the fitted curve."}
{"test": "Primary qHTS assay for Inhibitors of ovarian cancer metastasis using an organotypic tumor microenvironment (TME) model; note: nearly all actives have a fitted effect of over 65% in size;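 for Potency: count of GFP cancer cells still attached after washing and fixation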.", "conditions": "SKOV3ip1-GFP adhesion/invasion on 3D omental model, fluorescence; series mostly up to 45.8 µM", "how_it_was_run": "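Primary human omental fibroblast/mesothelial 3D culture pre-formed 48 h. SKOV3ip1-GFP cells added with compounds (0.36-46 umol/L), incubated 2 h RT/16 h 37 C, fixed; GFP cells quantified at 488/509 nm.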"}
{"smiles": "CCc1ccccc1NC(=O)c1ccc2nc(C(C)C)oc2c1", "Potency": "inconclusive [inhibitor, partial curve, poor fit]"}
{"smiles": "NC(=O)c1ccccc1NC(=O)C1CCCN(c2ncnc3onc(-c4ccc(F)cc4)c23)C1", "note": "(stereo unspecified)", "Potency": "inactive"}
{"smiles": "O=C(OCC#CCSc1nnc(-c2cccc3ccccc23)o1)c1cc2ccccc2s1", "Potency": "inactive"}
{"smiles": "Cc1cc(C)c2nc(N3CCCC(C(=O)NCc4cccc(Cl)c4)C3)sc2c1", "note": "(stereo unspecified)", "Potency": "inconclusive [inhibitor, single point]"}
{"smiles": "Cc1nc(C)c(-c2ccc(SCC(=O)Nc3ccc(Cl)c(Cl)c3)nn2)s1", "Potency": "inactive"}
{"smiles": "COc1ccc(C(=O)NCCc2sc(-c3cccc(F)c3)nc2C)cc1", "Potency": "inactive"}
{"smiles": "COc1cccc(C(=O)NC(=O)Nc2ccc(-c3cc(C(F)(F)F)nn3-c3ccccc3)cc2)c1", "Potency": "inactive"}
{"smiles": "COc1ccc(C2c3c(-c4ccccc4O)n[nH]c3C(=O)N2Cc2ccco2)cc1", "note": "(stereo unspecified)", "Potency": "inconclusive [inhibitor, single point]"}
{"smiles": "Cc1cc(C)cc(NC(=O)NCCn2nnc3cc(S(=O)(=O)N(C)C)ccc32)c1", "Potency": "inconclusive [inhibitor, single point]"}
{"smiles": "Cc1cc(C)cc(OCCn2c(C3CC(=O)N(c4ccccc4Cl)C3)nc3ccccc32)c1", "note": "(stereo unspecified)", "Potency": "inconclusive [inhibitor, single point]"}
{"smiles": "CC1=C(C(=O)Nc2ccccc2)C(c2ccccc2C)n2ncc(C(=O)Nc3ccccc3)c2N1", "note": "(stereo unspecified)", "Potency": "inconclusive [inhibitor, full curve, poor fit]"}
{"smiles": "Cn1c(=O)c2sccc2n2c(CCC(=O)NCc3ccc(F)cc3)nnc12", "Potency": "inconclusive [inhibitor, full curve, poor fit]"}
{"smiles": "Cn1c(CN2CCCCC2)nc2cc(NC(=O)c3cccc(Br)c3)ccc21", "Potency": "inactive"}
{"smiles": "CN(C)CCCNC(=O)C(=O)NCC(c1ccc2c(c1)OCO2)N1CCOCC1", "note": "(stereo unspecified)", "Potency": "inconclusive [inhibitor, single point]"}
{"smiles": "Cc1cc(C)c(S(=O)(=O)Nc2ccc3oc4c(c3c2)C(=O)CC(C)(C)C4)cc1C", "Potency": "inactive"}
{"smiles": "COc1ccc(-c2coc3c2c(C)cc2oc(=O)c(CC(=O)O)c(C)c23)cc1", "Potency": "inactive"}
{"smiles": "O=C1NC(=O)C(=Cc2ccc3c(c2)OC(F)(F)O3)S1", "Potency": "inconclusive [inhibitor, single point]"}
{"smiles": "CC1CCC(NC(=O)C2(C)Cc3ccccc3C(=O)N2Cc2ccccc2Cl)CC1", "note": "(stereo unspecified)", "Potency": "inconclusive [inhibitor, single point]"}
{"smiles": "CCOC(=O)c1cccc(NC(=O)C2CCN(c3nnc(C)c4c(C)n(-c5ccccc5)nc34)CC2)c1", "Potency": "inactive"}
{"smiles": "COc1ccc(N2CCN(S(=O)(=O)CCNC(=O)Cc3ccc(-c4ccccc4)cc3)CC2)cc1", "Potency": "inactive"}
{"smiles": "Cc1ccc(C2c3c(-c4cc(C)ccc4O)n[nH]c3C(=O)N2Cc2ccco2)cc1", "note": "(stereo unspecified)", "Potency": "inconclusive [inhibitor, partial curve, poor fit]"}
{"smiles": "COc1cccc(Cn2c(=O)n(CC3CCC(C(=O)N4CCCCC4)CC3)c(=O)c3sccc32)c1", "note": "(stereo unspecified)", "Potency": "inconclusive [inhibitor, single point]"}
{"smiles": "Cc1ccc2c(c1)c(=O)c1ccccc1n2CCCC(=O)Nc1ccc(C)c(F)c1", "Potency": "inactive"}
{"smiles": "CCOC(=O)c1cc(-c2ccc(C)cc2)n(CCC(=O)Nc2nc3c(C)cccc3s2)c1C", "Potency": "inconclusive [inhibitor, single point]"}
{"smiles": "O=C(Nc1ccc(C(F)(F)F)cc1)c1cc(S(=O)(=O)NC2CCCCC2)ccc1F", "Potency": "inconclusive [inhibitor, single point]"}
{"smiles": "Cc1ccc2c(CC(=O)NCc3ccccc3)coc2c1C", "Potency": "inconclusive [inhibitor, partial curve, poor fit]"}
{"smiles": "CCOC(=O)c1c(C)[nH]c(CCC(=O)NCCCN2CCN(c3cc(Cl)ccc3C)CC2)c1C", "Potency": "inconclusive [inhibitor, single point]"}
{"smiles": "CCOc1ccccc1CNC(=O)C1CCCN(c2nnc(C)c3c(C)n(-c4ccccc4)nc23)C1", "note": "(stereo unspecified)", "Potency": "inconclusive [inhibitor, single point]"}
{"smiles": "Cc1nn2c(=O)cc(COC(=O)c3cccc(NC(=O)COc4ccccc4C)c3)nc2s1", "Potency": "inactive"}
{"smiles": "CCOc1cc(CNS(=O)(=O)c2ccc3c(c2)C(C)(C)C(=O)N3)cc(OCC)c1OCC", "Potency": "inconclusive [inhibitor, single point]"}
{"smiles": "Cc1ccc(NC(=O)CSc2nc(-c3ccco3)cc(C(F)(F)F)n2)c(C)c1", "Potency": "inconclusive [inhibitor, full curve]"}
{"smiles": "Cc1c(C(=O)OCCOc2ccccc2)[nH]c2c1C(=O)CC(c1ccc(C(C)(C)C)cc1)C2", "note": "(stereo unspecified)", "Potency": "inconclusive [inhibitor, single point]"}
{"smiles": "Cc1ccc(N(Cc2cccs2)C(=O)C(C)Oc2ccc(Cl)c(C)c2)cc1", "note": "(stereo unspecified)", "Potency": "inconclusive [inhibitor, partial curve, poor fit]"}
{"smiles": "Cc1[nH]c2ccccc2c1C(c1ccccc1)c1ccc(Cl)s1", "note": "(stereo unspecified)", "Potency": "inconclusive [inhibitor, single point]"}
{"smiles": "COc1ccccc1NC(=O)CSc1nc2nccnc2c(=O)n1CCc1c[nH]c2ccccc12", "Potency": "inactive"}
{"smiles": "O=C(Cn1c(-c2cccs2)cc2ccccc21)N1CCN(c2ccccc2F)CC1", "Potency": "inconclusive [inhibitor, single point]"}
{"smiles": "CCN(CC)C(=S)SSC(=S)N(CC)CC", "Potency": "inconclusive [inhibitor, single point]"}
{"smiles": "Cc1ccccc1CS(=O)(=O)Cc1ccc(C(=O)NCCc2ccccc2)o1", "Potency": "inconclusive [inhibitor, single point]"}
{"smiles": "Cc1nnc(NC(=O)c2nc(S(=O)(=O)Cc3ccccc3)ncc2Cl)s1", "Potency": "inconclusive [inhibitor, partial curve, poor fit]"}
{"smiles": "COc1ccc(C)cc1NC(=O)C(=O)NCCc1csc(-c2ccc(C)cc2)n1", "Potency": "inconclusive [inhibitor, single point]"}
{"smiles": "Cc1ccc2nc(-c3ccccn3)c(Nc3ccc(F)cc3)n2c1", "Potency": "inconclusive [inhibitor, partial curve]"}
{"smiles": "CCCc1nnc(NC(=O)c2nc(S(=O)(=O)Cc3ccc(C)cc3)ncc2Cl)s1", "Potency": "inconclusive [inhibitor, single point]"}
{"smiles": "CC(C)(C)C1CCc2nc(NC(=O)Cc3ccc(Cl)cc3)sc2C1", "note": "(stereo unspecified)", "Potency": "inconclusive [inhibitor, single point]"}
{"smiles": "CCN(CC)CCCNC(=O)c1oc2c(c1C)-c1nn(Cc3ccc(Cl)cc3)cc1CC2", "Potency": "inconclusive [inhibitor, single point]"}
{"smiles": "CCOc1ccc(C2c3c(-c4ccccc4O)n[nH]c3C(=O)N2Cc2ccncc2)cc1", "note": "(stereo unspecified)", "Potency": "inconclusive [inhibitor, full curve, poor fit]"}
{"smiles": "O=c1ccn([C@@H]2O[C@H](CO)[C@H](O)[C@H]2O)c(=O)[nH]1", "Potency": "inactive"}
{"smiles": "COc1ccccc1/C=C/c1nc(C#N)c(N2CCCCC2)o1", "Potency": "inactive"}
{"smiles": "C=CCc1ccccc1OCCSc1nc(-c2ccc(C(C)(C)C)cc2)nc2cc(=O)[nH]n12", "Potency": "inconclusive [inhibitor, single point]"}
{"smiles": "CCOC(=O)c1ccccc1NC(=O)CCOc1ccccc1", "Potency": "inconclusive [inhibitor, single point]"}
{"smiles": "Cc1cc(C)c(CSc2nnc(C)n3c2cc2occc23)c(C)c1", "Potency": "inconclusive [inhibitor, single point]"}
{"smiles": "CCOC(=O)c1c(N)n(-c2cccc(OC)c2)c2nc3ccccc3nc12", "Potency": "inactive"}
{"smiles": "Cc1cccc(-n2ncc3c(Nc4ccc(Oc5ccc(Cl)cc5)cc4)ncnc32)c1", "Potency": "inconclusive [inhibitor, single point]"}
{"smiles": "CCOCCCNC(=O)NC(C)c1c(-n2cccc2)sc2c1CCN(CC)C2", "note": "(stereo unspecified)", "Potency": "inactive"}
{"smiles": "O=C1c2[nH]nc(-c3ccccc3O)c2C(c2ccc(Cl)cc2)N1Cc1ccco1", "note": "(stereo unspecified)", "Potency": "inconclusive [inhibitor, single point]"}
{"smiles": "COc1ccc(NCc2cc3cc4c(cc3n(CC(=O)Nc3ccc(F)cc3F)c2=O)OCO4)cc1", "Potency": "inactive"}
{"smiles": "CCCN(C(=O)c1cc2c(s1)-c1ccccc1OC2)c1ccccc1F", "Potency": "inactive"}
{"smiles": "CC(C)CCNC(=O)c1cccc(Nc2nc3ccccc3n3nnnc23)c1", "Potency": "inconclusive [inhibitor, single point]"}
{"smiles": "c1ccc(-n2ncc3c(NC4CCCC4)ncnc32)cc1", "Potency": "inactive"}
{"smiles": "Cc1ccc(C)c(N2CCN(Cc3csc(C)c3C)CC2)c1", "Potency": "inconclusive [inhibitor, single point]"}
{"smiles": "CCOc1ccccc1CC1C(=O)Nc2ccc(Br)cc21", "note": "(stereo unspecified)", "Potency": "inconclusive [inhibitor, single point]"}
{"smiles": "Cc1ccccc1Cn1c(=O)n(CCc2ccccc2)c(=O)c2ccccc21", "Potency": "inconclusive [inhibitor, single point]"}
{"smiles": "Cc1cc(N2CCCCC2)nc2ccc(NC(=O)/C=C/c3ccccc3Cl)cc12", "Potency": "inactive"}
{"smiles": "COC(=O)c1c(-c2ccc(Cl)cc2)noc1N1CCN(c2cccc(C(F)(F)F)c2)CC1", "Potency": "inconclusive [inhibitor, single point]"}
{"smiles": "Cc1cccc(-n2ncc3c(NC4CCCC4)ncnc32)c1", "Potency": "inconclusive [inhibitor, single point]"}
{"smiles": "CCS(=O)(=O)c1nc(S(=O)(=O)c2ccc(Cl)cc2)c(NCc2ccccc2Cl)s1", "Potency": "inactive"}
{"smiles": "C=Cc1ccc(Cn2c(C(=O)O)c(CNCc3ccccc3)c3ccc(C)cc32)cc1", "Potency": "inconclusive [inhibitor, partial curve, poor fit]"}
